According to the supplement of paper PMC7826260:
The list shows a part of the results. The data describe in vitro nicking of single-stranded DNA by Rep domains at 3 µM enzyme and 37 °C for 1 h; the strands have 90 letters, of which the middle is given. A value is the log2 ratio of uncut reads to the pool without enzyme; uncut sequences lie near 0, cut ones below; no hit call is given. Reads are scaled to the total, so uncut sequences can rise above 0 when many others are cut.

Experiments:
Experiment in all cases: uncleaved DNA left, log2 of reads against the no-enzyme library (log2 ratio); higher = less cleavage (more negative = more Rep cleavage of the k-mer); sequences stand for … in CTCGTCCG…ACCGGAGA
[1] = system: T1, Rep nickase domain of Muscovy duck circovirus
T1 sequence (Rep 1-111, printed without the tag): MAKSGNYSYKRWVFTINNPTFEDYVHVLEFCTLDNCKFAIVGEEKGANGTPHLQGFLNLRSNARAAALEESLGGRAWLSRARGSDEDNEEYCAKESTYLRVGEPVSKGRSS
Protocol: (§1)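 A pool of 90-nt single-stranded DNAs with seven random bases just before the constant AC of the nick site (name = the seven bases) was cut by 3 µM recombinant His6-SUMO-tagged Rep nickase domain (300 nM DNA, 50 mM HEPES pH 8.0, 50 mM NaCl, 1 mM MnCl2, 1 h, 37 °C, three replicates). Uncut DNA was amplified and sequenced.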

[2] = system: T2, Rep nickase domain of banana bunchy top virus
T2 sequence (Rep 1-94, printed without the tag): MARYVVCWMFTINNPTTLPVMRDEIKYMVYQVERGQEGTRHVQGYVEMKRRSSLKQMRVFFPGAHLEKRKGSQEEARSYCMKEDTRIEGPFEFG
Protocol: as §1

[3] = system: T3, Rep nickase domain of cabbage leaf curl virus
T3 sequence (Rep 1-116, printed without the tag): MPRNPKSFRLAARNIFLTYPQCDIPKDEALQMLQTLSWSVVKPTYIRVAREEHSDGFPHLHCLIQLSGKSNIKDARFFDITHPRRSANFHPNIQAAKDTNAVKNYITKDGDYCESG
Protocol: as §1

[4] = system: T4, Rep nickase domain of chickpea chlorotic dwarf virus
T4 sequence (Rep 1-124, printed without the tag): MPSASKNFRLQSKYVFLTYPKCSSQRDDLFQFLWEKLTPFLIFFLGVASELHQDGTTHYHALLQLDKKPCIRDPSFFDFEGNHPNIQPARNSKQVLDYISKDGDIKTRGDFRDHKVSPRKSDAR
Protocol: as §1

[5] = system: T5, Rep nickase domain of faba bean necrotic yellows virus
T5 sequence (Rep 1-98, printed without the tag): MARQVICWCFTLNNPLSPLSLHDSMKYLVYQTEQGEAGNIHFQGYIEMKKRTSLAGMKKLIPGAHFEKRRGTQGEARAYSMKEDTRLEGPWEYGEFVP
Protocol: as §1

[6] = system: T6, Rep nickase domain of maize striate mosaic virus
T6 sequence (Rep 1-117, printed without the tag): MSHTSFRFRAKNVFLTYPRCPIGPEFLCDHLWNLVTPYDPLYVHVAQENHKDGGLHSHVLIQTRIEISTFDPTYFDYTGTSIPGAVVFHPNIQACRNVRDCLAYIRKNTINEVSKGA
Protocol: as §1

[7] = system: T7, Rep nickase domain of porcine circovirus 2
T7 sequence (Rep 2-116, printed without the tag): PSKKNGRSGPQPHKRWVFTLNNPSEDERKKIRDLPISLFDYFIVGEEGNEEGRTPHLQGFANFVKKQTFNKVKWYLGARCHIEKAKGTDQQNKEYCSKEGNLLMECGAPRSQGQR
Protocol: as §1

[8] = system: T8, Rep nickase domain of tomato yellow leaf curl virus
T8 sequence (Rep 1-136, printed without the tag): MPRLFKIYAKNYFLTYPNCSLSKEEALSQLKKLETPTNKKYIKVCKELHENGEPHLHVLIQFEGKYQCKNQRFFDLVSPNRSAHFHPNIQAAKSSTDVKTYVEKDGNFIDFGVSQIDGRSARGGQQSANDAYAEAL
Protocol: as §1

[9] = system: T9, Rep nickase domain of wheat dwarf virus
T9 sequence (Rep 1-137, printed without the tag): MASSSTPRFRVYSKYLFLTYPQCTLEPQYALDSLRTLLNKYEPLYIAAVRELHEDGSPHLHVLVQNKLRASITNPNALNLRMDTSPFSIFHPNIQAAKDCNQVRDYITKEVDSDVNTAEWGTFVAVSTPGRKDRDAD
Protocol: as §1

Sequence | uncleaved DNA left (log2) [1] | uncleaved DNA left (log2) [2] | uncleaved DNA left (log2) [3] | uncleaved DNA left (log2) [4] | uncleaved DNA left (log2) [5] | uncleaved DNA left (log2) [6] | uncleaved DNA left (log2) [7] | uncleaved DNA left (log2) [8] | uncleaved DNA left (log2) [9]
ACGTAAT | -1.26 | -0.303 | -0.615 | -0.992 | -0.459 | -0.709 | -3.71 | -0.29 | -0.305
CATAACT | -0.0764 | -0.899 | -0.692 | -2.86 | 0.075 | -1.21 | -1.94 | -0.00308 | -0.0484
AAGGACG | 0.0778 | 0.183 | -0.635 | -0.625 | 0.101 | -1.1 | 0.304 | 0.231 | 0.213
GACAATG | 0.0796 | 0.0899 | -0.0433 | 0.294 | -0.0165 | -0.377 | 0.0648 | 0.0699 | 0.112
AATGCTC | -0.0366 | 0.0277 | -0.108 | -0.374 | -0.0633 | -0.277 | -0.051 | -0.0987 | -0.0513
CGCCCCC | -0.0895 | -0.187 | 0.0448 | -0.00842 | -0.179 | 0.106 | -0.259 | -0.101 | -0.0483
CTCATGA | -0.0768 | -0.0272 | -0.157 | -0.0669 | -0.0982 | -1.06 | -0.0419 | -0.038 | -0.114
GCTCTTC | -0.0589 | -0.0586 | 0.18 | 0.336 | -0.0536 | 0.164 | 0.0115 | -0.0869 | -0.0294
CGATGCA | 0.0532 | 0.152 | 0.00025 | 0.381 | 0.153 | 0.439 | -0.0185 | 0.159 | 0.112
CGTCTCT | -0.0586 | -0.126 | -0.119 | -1.48 | -0.101 | -0.221 | -0.355 | -0.0297 | -0.181
GCCCGGA | -0.026 | -0.0395 | 0.244 | 0.647 | -0.0149 | 0.518 | 0.0242 | 0.0315 | -0.126
GGTCATG | -0.0304 | 0.0219 | 0.658 | 1.51 | -0.12 | 1.8 | 0.0236 | -0.0751 | 0.114
CTTTATG | -0.0417 | -0.0443 | -0.732 | -0.498 | 0.0516 | -1.17 | 0.0473 | -0.0528 | -0.0884
CAGTTAC | -0.0473 | -0.0818 | -0.319 | -1.88 | -0.122 | -0.963 | -1.71 | -0.0346 | -0.227
GCAAGTT | 0.17 | 0.0836 | -0.141 | -0.975 | 0.0755 | 0.0587 | -0.0657 | 0.00489 | 0.0545
TCCCATA | -0.0115 | -0.0954 | -0.0799 | -0.645 | -0.0201 | -0.478 | -0.18 | -0.0368 | 0.0756
GCTTAGC | 0.0384 | 0.0829 | -0.155 | -0.00332 | -0.0764 | -0.87 | 0.161 | 0.0326 | 0.0296
CCGTAGT | -1.61 | -0.29 | -1.04 | -1.45 | -0.736 | -0.895 | -3.23 | -0.0541 | -1.18
AAGTCGG | -0.014 | -0.0142 | 0.29 | 0.925 | -0.0992 | 1.11 | 0.0176 | -0.076 | 0.075
TCTGATC | 0.228 | 0.038 | 0.264 | 0.447 | 0.0861 | 0.606 | 0.175 | 0.143 | 0.163
AAGCAAG | 0.0296 | 0.0459 | -0.447 | -0.569 | 0.0167 | -1.01 | 0.323 | 0.0658 | 0.092
TCCGCCA | 0.00935 | -0.167 | -0.0721 | -0.744 | 0.0166 | -0.479 | -0.137 | -0.202 | -0.0543
CGACTCA | 0.0755 | -0.0178 | 0.0777 | 0.398 | 0.0657 | 1.1 | -0.0624 | -0.0632 | 0.00346
CTTCTCT | 0.0335 | 0.0407 | -0.154 | -1.9 | -0.0333 | -0.67 | -0.112 | 0.0107 | 0.0954
GCGGAGA | 0.0463 | 0.0213 | 0.622 | 1.36 | -0.0713 | 1.42 | 0.172 | 0.0753 | 0.0653
ATTGCCA | 0.00734 | -0.0554 | -0.504 | -0.807 | 0.0649 | -1.13 | 0.0335 | 0.141 | -0.0614
GGACGAG | 0.126 | 0.234 | 0.932 | 1.94 | 0.135 | 2.1 | 0.287 | 0.186 | 0.27
TAGGAAG | 0.0668 | 0.101 | -0.466 | -0.571 | 0.0859 | -0.997 | 0.102 | 0.0734 | -0.142
ACCGCTG | -0.139 | -0.0832 | 0.302 | 1.42 | -0.0912 | 1.14 | -0.0129 | -0.113 | -0.00823
ATGTTGA | 0.00928 | 0.0335 | -0.205 | -0.318 | 0.148 | -0.915 | -0.16 | -0.0852 | -0.119
